Test results taken from paper PMC4336329 (PLoS ONE, 2015).
The whole screen tested about 310,000 compounds, of which about 14,000 (4.5%) showed an effect of 50% or more. Effects have a minus sign here. The list shows a part of the results.

These molecules were tested against human ether-à-go-go-related gene (hERG) potassium channel (human, UniProt Q12809) (assay: primary screen, population patch clamp on CHO cells stably expressing hERG).
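Also: peak tail current of the secondary pulse compared with the same well before compound.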

Sequence of human ether-à-go-go-related gene (hERG) potassium channel (Q12809 whole entry, looked up): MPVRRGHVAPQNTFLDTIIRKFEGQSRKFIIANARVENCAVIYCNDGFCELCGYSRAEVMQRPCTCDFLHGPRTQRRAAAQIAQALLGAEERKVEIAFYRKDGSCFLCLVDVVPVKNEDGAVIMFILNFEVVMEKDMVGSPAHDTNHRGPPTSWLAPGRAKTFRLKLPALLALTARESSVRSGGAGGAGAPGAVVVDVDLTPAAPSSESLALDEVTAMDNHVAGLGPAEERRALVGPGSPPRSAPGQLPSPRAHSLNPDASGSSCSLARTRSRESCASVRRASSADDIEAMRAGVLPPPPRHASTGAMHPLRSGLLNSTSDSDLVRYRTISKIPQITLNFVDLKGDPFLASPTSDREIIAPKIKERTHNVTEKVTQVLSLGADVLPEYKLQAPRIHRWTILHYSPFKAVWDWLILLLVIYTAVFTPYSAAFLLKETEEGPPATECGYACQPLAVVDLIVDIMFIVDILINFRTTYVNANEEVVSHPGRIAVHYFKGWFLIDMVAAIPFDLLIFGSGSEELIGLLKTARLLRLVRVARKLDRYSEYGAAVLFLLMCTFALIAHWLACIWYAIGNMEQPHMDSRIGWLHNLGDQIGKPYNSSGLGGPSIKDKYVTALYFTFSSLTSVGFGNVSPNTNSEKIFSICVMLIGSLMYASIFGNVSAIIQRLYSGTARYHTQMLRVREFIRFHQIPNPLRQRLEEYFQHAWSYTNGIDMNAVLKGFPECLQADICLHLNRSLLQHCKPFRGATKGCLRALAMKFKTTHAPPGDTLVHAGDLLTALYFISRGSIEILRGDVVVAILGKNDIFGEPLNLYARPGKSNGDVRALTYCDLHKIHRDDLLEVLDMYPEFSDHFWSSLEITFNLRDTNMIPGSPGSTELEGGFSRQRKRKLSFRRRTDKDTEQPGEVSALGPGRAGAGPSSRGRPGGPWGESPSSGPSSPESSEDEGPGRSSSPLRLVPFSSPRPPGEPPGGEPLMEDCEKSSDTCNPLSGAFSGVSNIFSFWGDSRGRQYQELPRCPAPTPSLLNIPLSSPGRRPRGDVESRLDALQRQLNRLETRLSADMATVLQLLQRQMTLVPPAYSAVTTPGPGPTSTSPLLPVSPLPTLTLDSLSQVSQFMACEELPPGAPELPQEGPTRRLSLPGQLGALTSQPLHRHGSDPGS

| SMILES | hERG current change (%, negative = inhibition) at 10uM [%] |
| --- | --- |
| O=C(Nc1ccc2c(c1)OCO2)N1CCN(C/C=C/c2ccccc2)CC1 | -15.4 |
| Cn1ncc2cc(NC(=S)NC(=O)c3ccccc3)ccc21 | -10.3 |
| Cc1ccn2c(Nc3ccccc3)c(-c3ccccn3)nc2c1 | -10.8 |
| CCOC(=O)CSc1nc(C)c2cc(C)c(C)cc2n1 | 4.38 |
| Nc1ccc(S(=O)(=O)NC(=O)c2ccccc2)cc1 | 12.7 |
| CN(CC(O)COc1c(F)cc(Br)cc1F)C1CCCCC1.Cl (centres unmarked) | -65.9 |
| COc1cc(OC)c(NC(=O)CCc2nc(-c3ccc(C)cc3)no2)cc1Cl | 6.21 |
| Cc1ccccc1C(=O)NNC(=O)c1cc(S(=O)(=O)N2CCOCC2)ccc1C | 0.0364 |
| CCCc1cc(=O)[nH]c(SCC(=O)NC(=O)c2ccccc2)n1 | -2.69 |
| Cc1ccc(CCNC(=O)CCn2c(=O)c3cccn3c3ccc(F)cc32)cc1 | -12.1 |
| Fc1ccccc1-c1nc(NCc2ccccc2)c2ccccc2n1 | 0.633 |
| CC(C)Oc1cccc(C(=O)C2CCCN(Cc3cccn3-c3ccccn3)C2)c1 (centres unmarked) | -78.8 |
| C/C(=N\Nc1nc(C)cc(-c2ccccc2)n1)c1ccccc1 | 18.2 |
| Cc1cc([N+](=O)[O-])nn1CC(=O)NNC(=S)Nc1ccc(F)cc1 | 20.3 |
| CC(NC(=O)c1cc(F)c(F)cc1Cl)c1ccncc1 (centres unmarked) | 1.1 |
| CCc1ccc(N2Cc3ccccc3C2)cc1 | 4.69 |
| Cc1c(C(=O)N(C)C)sc(NC(=O)c2cccc([N+](=O)[O-])c2)c1C#N | 15.4 |
| C=CC[C@H]1CC(C)=C[C@H](CC=C)N1C(=O)c1cc(COc2ccccc2SC)on1 | 7 |
| O=C(CN1CC(c2ccccc2)CC1=O)Nc1ccc(F)cc1 (centres unmarked) | -7.34 |
| O=C(NN1CC(C(=O)OCc2ccccc2F)CC1=O)c1ccccc1 (centres unmarked) | -56.8 |
| CC(C)NS(=O)(=O)c1ccc(N2C(=O)c3ccccc3C2=O)cc1 | -7.03 |
| CC(C)CC(=O)NC(=S)Nc1nc(-c2ccc(Cl)cc2)cs1 | -8.58 |
| CC(=O)c1ccc(NC(=O)C2CCC(C)(C(=O)O)C2(C)C)cc1 (centres unmarked) | -13.3 |

| SMILES | hERG current change (%, negative = inhibition) at 10uM [%] |
| --- | --- |
| CCOc1ccccc1N1CCN(CC(=O)NC(=O)NCc2ccco2)CC1 | 9.94 |
| C=CCn1c(SCC(=O)NC2CC2)nnc1C1CC1 | 20.7 |
| COc1ccccc1NC(=O)c1c(Br)cnn1C | 1.29 |
| CC1CCN(Cc2c(C(=O)N/N=C/c3ccc(OC(C)C)cc3)nnn2-c2nonc2N)CC1 | -4.52 |
| COCCNC(=O)c1cccc(NS(=O)(=O)c2cccc3cccnc23)c1 | -0.414 |
| COC(=O)c1ccc(NC(=O)Cn2nc(-c3ccncc3)nc2SCC(=O)Nc2nccs2)cc1 | -5.03 |
| CCOc1ccccc1N(CC(=O)N1CCCCCC1)S(C)(=O)=O | 11.8 |
| CC(C)(C)OC(=O)N[C@@H](Cc1ccccc1)[C@H](O)c1ccco1 | 9.63 |
| CCCS(=O)(=O)Nc1cccc(-c2cn3c(n2)SCC3)c1 | -14.1 |
| COC(=O)C1=C(c2ccc(OC(F)(F)F)cc2)C[C@@H]2CC[C@H]1N2C(=O)NCCOc1ccc(OC)cc1 | -26.3 |
| O=C(NCC(=O)N(c1cccnc1)C(C(=O)NC1CCCC1)c1ccccc1)c1ccco1 (centres unmarked) | 19.9 |
| CCC(=O)c1cccc2c1N=CC1=C(CC(C)(C)CC1=O)N2 | 2.57 |
| Cc1cc(C)n(-c2cc(Cl)ccc2[N+](=O)[O-])n1 | 4.19 |
| COc1ccc2c3c(cccc13)OCC2=O | -3.92 |
| CCOC(=O)[C@H]1[C@H]2COc3ccccc3[C@@H]2N2C(=O)c3cc(C)ccc3NC(=O)[C@@]12C | -23.2 |
| CN(CC(=O)Nc1cccc(F)c1)C(=O)c1cc(-c2ccco2)nc2ccccc12 | -27.1 |
| CC(C)(C)c1nnc(NC(=O)CCS(=O)(=O)c2ccccc2)s1 | 5.03 |
| CC(C)(C)CC(=O)Nc1cccc2c1CCCC2 | -7.97 |
| C=C(C)Cn1c(CCCNC(=O)CC)nc2ccccc21 | -6.64 |
| O=C(/C=C/c1cccc([N+](=O)[O-])c1)NCc1ccc2c(c1)OCO2 | -43.7 |
| COc1cccc(NC(=O)CCc2nnc3ccc(NCc4ccco4)nn23)c1 | 4.38 |
| Cc1ccc(NC(=S)Nc2ccc(C(C)C)cc2)cc1S(=O)(=O)N1CCCCCC1 | 11.2 |
| COc1ccc2c(c1)CC/C(=C/c1ccncc1)C2=O | -55.2 |

| SMILES | hERG current change (%, negative = inhibition) at 10uM [%] |
| --- | --- |
| Cc1ccn2c(=O)nc(SCC(=O)c3ccc(Cl)cc3)nc2c1 | -31.2 |
| COc1cccc(NC(=O)CN(C)C(=O)c2cn(-c3ccccc3)nc2-c2cccs2)c1 | -29.8 |
| CC(=O)c1ccc(N2CCN(C(=O)C3CCC3)CC2)cc1 | -26.4 |
| COC(=O)c1sccc1NC(=O)c1ccc(Br)o1 | -3.08 |
| CCOC(=O)C1=C(O)/C(=C/c2cc(C)n(-c3ccccc3)c2C)N=C1C | -22.8 |
| O=C(OC1CCOC1=O)c1cccc(S(=O)(=O)N2CCc3ccccc3C2)c1 (centres unmarked) | -18.5 |
| O=C(NCc1ccc2c(c1)OCO2)c1sccc1Br | 8.28 |
| Cc1ccc2cc(CCNC(=O)C3CCCCC3)c(=O)[nH]c2c1C | -7.04 |
| Cc1ccc(-c2nnn(CC(=O)N(C)C3CCCCC3)n2)o1 | 2.45 |
| ClC(Br)=C(n1cnc2ccccc21)n1cnc2ccccc21 | -22.5 |
| COC(=O)c1[nH]c2cc(OC)ccc2c1NC(=O)CCN1CCCC(C)(C)C1 | -39.4 |
| CSC1=NC(C)(C)C=C(/C=C/c2ccc(Cl)cc2)N1 | -15.7 |
| CCOc1ccc(CC(=O)N/N=C/c2cccnc2)cc1OCC | 14 |
| N#Cc1c(SCC(=O)Nc2nncs2)sc2c(O)cc(=O)[nH]c12 | 10.5 |
| Cc1noc(C)c1C(=O)N(CC(=O)NC1CCCC1)Cc1ccccc1F | -5.09 |
| CCCCn1c(O)c(/C=C/C=Nc2ccccc2)c(=O)[nH]c1=O | -15.4 |
| Cc1nc2ccccc2c(=O)n1NC(=O)/C=C/c1ccccc1Cl | 8.99 |
| Nc1nc(SCc2ccc(Cl)cc2)ns1 | -7 |
| Cc1ccc(Oc2nc(-c3ccccc3)ncc2S(=O)(=O)c2ccc(C)cc2)cc1 | 20.1 |
| COc1ccc(CNC(=O)C2CCN(S(=O)(=O)c3cccc4cccnc34)CC2)cc1 | -17.7 |
| O=C(COC(=O)c1cccc(F)c1)Nc1cccnc1Cl | 7.1 |
| COc1cc(NC2c3ccccc3C(=O)N2Cc2ccc3c(c2)OCO3)cc(OC)c1 (centres unmarked) | -22.4 |
| Cc1ccccc1Cn1nc(C)c(NC(=O)c2cc(-c3ccco3)on2)c1C | -8.59 |

| SMILES | hERG current change (%, negative = inhibition) at 10uM [%] |
| --- | --- |
| O=C(NC1CC1)c1ccc(CSCc2ccccc2Cl)o1 | -8.27 |
| Cc1scc(C(=O)NNC(=S)NCC2CCCO2)c1-c1ccccc1 (centres unmarked) | 12.1 |
| CCn1c(CSCc2ccccc2)n[nH]c1=S | 13.2 |
| O=C(COc1cccc2c1CCN(Cc1ccccc1)C2=O)N1CCCCC1 | -15 |
| CN1C(=O)C(Cc2ccc(OCc3ccccc3)cc2)C(=O)N(C)C1=O | 15.6 |
| COc1nc(-c2ccccc2)ccc1-c1noc(-c2cccs2)n1 | -5.4 |
| COc1ccc([C@H]2/C=C\CN(C(=O)c3ccccc3)[C@@H](C)C(=O)N2Cc2ccc(F)cc2)cc1 | -43.4 |
| O=c1[nH]c(=S)[nH]c(O)c1N=Nc1ccc2c(c1)OCO2 | 14.8 |
| COc1cc(/C=N/O)cc(Br)c1OC | 4.3 |
| OCC1(Cc2ccccc2)CCN(Cc2cnn(-c3ccccc3F)c2)CC1 | -41.9 |
| COc1ccc(NC(=O)COC(=O)[C@@H]2CCCN2S(=O)(=O)c2ccccc2F)c(OC)c1 | -18.2 |
| COc1cc(CN2CCCCCC2)c([N+](=O)[O-])cc1OC | 3.94 |
| Cc1sc(-n2c(C)cc(C=O)c2C)c(C(=O)O)c1C | 1.53 |
| CCOC(=O)c1c(NC(C)=O)sc2c(O)cccc12 | 2.36 |
| CCN(CCO)Cc1csc2ccc(C(C)(C)C)cc12.Cl | -48.9 |
| COc1cc(/C=C2\C(=N)N3N=C(C)SC3=NC2=O)cc(Cl)c1OCCOc1ccc(NC(C)=O)cc1 | 14.5 |
| CCOc1ccc(C(=O)C(C)OC(=O)C2CCN(c3ccc(C(F)(F)F)cn3)CC2)cc1 (centres unmarked) | -31 |
| CCCn1c(N2CCN(C(=O)N3CCCCC3)CC2)nc2ccccc21.Cl | -20.4 |
| COc1cc(OC)cc(-c2c(C#Cc3ccsc3)c3cc(-c4ccc5[nH]ccc5c4)ccc3n2C)c1 | 5.34 |
| c1ccc(-c2nc(-c3ccc(-c4ccon4)s3)no2)cc1 | 19.1 |
